# PubChem BioAssay AID485294 (National Center for Advancing Translational Sciences (NCATS), 2010)
# Out of some 370,000 compounds screened, about 150 (0.041%) were called active. The shares of active, inactive and inconclusive entries below differ from those in the screen. The call rests on the fitted dose curve; in most records, active means well fitted inhibition curve with a large enough effect; inconclusive means small, poorly fitted or top-dose-only effect; inactive means flat fitted curve, though single readings scatter. No potency is given beside an inconclusive call; the fits are too rough.
# Molecular target: Beta-lactamase (Escherichia coli (strain K12)) (UniProt P00811)
# Chain of UniProt P00811 (P00811 whole entry, looked up): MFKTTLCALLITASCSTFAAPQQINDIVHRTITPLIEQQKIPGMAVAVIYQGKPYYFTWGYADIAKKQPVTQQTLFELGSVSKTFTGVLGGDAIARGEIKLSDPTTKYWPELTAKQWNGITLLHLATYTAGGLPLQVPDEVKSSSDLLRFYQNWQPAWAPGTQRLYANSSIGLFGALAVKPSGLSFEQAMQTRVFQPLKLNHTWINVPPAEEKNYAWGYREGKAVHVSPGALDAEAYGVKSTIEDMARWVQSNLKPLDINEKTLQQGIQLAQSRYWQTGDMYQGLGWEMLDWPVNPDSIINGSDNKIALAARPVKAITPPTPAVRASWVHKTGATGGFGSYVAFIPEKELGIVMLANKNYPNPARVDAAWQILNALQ
# Assay: qHTS Inhibitors of AmpC Beta-Lactamase (assay with detergent); further: nearly all actives have a fitted effect of over 25% in size;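 on activity change, negative = inhibition: 0% = no-compound wells and -100% = no-enzyme wells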
# Conditions: AmpC hydrolysis of nitrocefin, absorbance 480 nm, 0.01% Triton; activity change, negative = inhibition: at 114 µM (top of the series)
# Summary of the method: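 AmpC (5.3 nM in the dispensed reagent) in 20 mM phosphate pH 7.0 with 0.01% (detergent screen) or 0.0001% Triton X-100 was preincubated with compounds for 15 min at room temperature. Nitrocefin was then added from an 800 uM solution, and hydrolysis was followed at 480 nm.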
# Potency means the concentration at half of the fitted maximal effect; tags describe the fitted curve by direction and shape.
SMILES,Potency,"activity change, negative = inhibition"
Clc1ccc(C(c2ccccc2)N2CCNCC2)cc1 (configuration not stated),"inconclusive [inhibitor, full curve]",
Cc1cccc(/C(N)=N/OC(=O)c2ccco2)c1,,inactive: -11%
C/C(=N\NC(=O)c1ccncc1)c1ccc(N2CCOCC2)cc1,"inconclusive [inhibitor, partial curve, poor fit]",
CN1C(=O)NC(=O)[C@]2(Cc3ccccc3N3CCN(c4ccccc4)CC32)C1=O (some centres not stated),"inconclusive [inhibitor, single point]",
CCSC1=C(C#N)C(c2ccc(C)s2)CC(=O)N1 (configuration not stated),"inconclusive [inhibitor, full curve, poor fit]",
C=CCNC(=O)CSc1ccc(Cl)cc1,"inconclusive [inhibitor, partial curve]",
CC(O)[C@H]1CNCCN1CC1(c2ccccc2)CC1 (some centres not stated),"inconclusive [inhibitor, full curve, poor fit]",
Cc1ccc(N2CC(C(=O)Nc3nccs3)CC2=O)cc1 (configuration not stated),"inconclusive [inhibitor, full curve, poor fit]",
COc1ccc(Cn2c(SCC(N)=O)nc3c(sc4ccccc43)c2=O)cc1,,inactive: -1.33%
Nc1ccccc1Oc1ncc(C(F)(F)F)cc1Cl,,inactive: -1.92%
O=C(Nc1cccnc1)/C(N=Nc1ccc(Cl)c(C(F)(F)F)c1)=C(\O)c1ccccc1,"inconclusive [inhibitor, full curve]",
COc1ccc(C(=O)Nc2ccccc2C(=O)N/N=C/c2ccco2)cc1,,inactive: 2.36%
O=C(OCc1nnc(-c2ccccc2)o1)c1ccc(S(=O)(=O)NCc2ccco2)cc1,"inconclusive [inhibitor, full curve, poor fit]",
CNS(=O)(=O)c1ccc2nc(NC(=O)/C=C/c3ccco3)sc2c1,,inactive: 6.49%
COC(=O)c1c(NC(=O)c2ccc(C)c(S(=O)(=O)Nc3ccccc3C)c2)sc2c1CCCC2,"inconclusive [inhibitor, full curve, poor fit]",
NC(=O)c1cc(S(=O)(=O)N2CCN(c3cccc(Cl)c3)CC2)cs1,,inactive: 3.84%
CC(C)(C)c1ccc(-c2cc(C(=O)NNC(=O)Nc3ccccc3)c3ccccc3n2)cc1,,inactive: -0.512%
Cc1ccc(C2Nc3ccccc3NC3=C2C(=O)CC(C)(C)C3)c(O)c1 (configuration not stated),,inactive: -19.3%
CC(=O)c1c(C)[nH]c(C(=O)OCC(=O)Nc2ccc(C)cc2[N+](=O)[O-])c1C,"inconclusive [inhibitor, single point]",
CC(=O)c1ccc(NC(=O)C(C)OC(=O)c2ccc(NS(=O)(=O)c3ccc(F)c(F)c3)cc2)cc1 (configuration not stated),,inactive: -0.416%
Cc1ccc2[nH]c(=O)c3cc(C(=O)N(C)Cc4ccco4)sc3c2c1,"inconclusive [inhibitor, full curve]",
COc1ccc(CNC(=O)c2c[nH]c3ccccc3c2=O)cc1,"inconclusive [inhibitor, full curve, poor fit]",
Cc1nn(Cc2ccccc2Cl)c(Cl)c1/C=C/C(=O)OCC(=O)NC(N)=O,"inconclusive [inhibitor, full curve, poor fit]",

SMILES,Potency,"activity change, negative = inhibition"
CC1(C)CC(=O)C(C=NCCC2=CCCCC2)=C(O)C1,"inconclusive [inhibitor, partial curve, poor fit]",
O=C(CCCn1c(=O)oc2ccccc21)N1CCN(c2ccccn2)CC1,"inconclusive [inhibitor, full curve, poor fit]",
Cc1ccc(S(=O)(=O)N2CCC(=O)N(C(COCc3cccc(Cl)c3)Cc3ccccc3)CC2)cc1 (configuration not stated),"inconclusive [inhibitor, full curve, poor fit]",
Cc1ccccc1Cc1c(C)nc2nc(SCC(=O)N3CCC4(CC3)OCCO4)nn2c1C,"inconclusive [inhibitor, full curve, poor fit]",
Cc1cc(C)nc(Nc2n[nH]c(-c3ccccc3Br)n2)n1,,inactive: 1.76%
COc1ccc(OC)c(C(=O)CN2CCN(S(=O)(=O)c3ccc(Br)cc3)CC2)c1,,inactive: -1.01%
COc1ccc(NC(=O)NNc2cc(N3CCOCC3)nc(N3CCOCC3)n2)cc1,"inconclusive [inhibitor, full curve, poor fit]",
COC(=O)c1ccc(N2CCCCC2)c(N)c1,,inactive: 0.35%
O=C(Cn1c(=O)n(-c2ccc(Cl)cc2)c(=O)c2oc3ccccc3c21)Nc1ccccc1,,inactive: 11.8%
O=C(c1ccc(F)cc1)C1CCN(C(=O)c2ccc(F)cc2)CC1,"inconclusive [inhibitor, full curve, poor fit]",
O=C1CCc2cc(NS(=O)(=O)c3ccc(Cl)cc3)cc3c2N1CC3,"inconclusive [inhibitor, full curve]",
CC(=O)N1CC(C)Sc2ccc(S(=O)(=O)N3CCCCC3)cc21 (configuration not stated),"inconclusive [inhibitor, full curve, poor fit]",
CC(C)C(C)NC(=O)COc1ncnc2sccc12 (configuration not stated),"inconclusive [inhibitor, full curve, poor fit]",
Cc1nnc(NC(=O)C2CCCO2)s1 (configuration not stated),,inactive: 1.05%
COC(=O)Cc1c(C)c2ccc(OCC(=O)N3CCCC(C)C3)c(C)c2oc1=O (configuration not stated),"inconclusive [inhibitor, single point]",
O=C(NNC(=S)Nc1ccc(Cl)cc1Cl)c1ccc(N2CCOCC2)c([N+](=O)[O-])c1,"inconclusive [inhibitor, partial curve]",
O=C(CSc1cn(CCNC(=O)c2ccc3ccccc3c2)c2ccccc12)NCc1ccco1,"inconclusive [inhibitor, full curve, poor fit]",
c1ccc2c(CN3CCCCC3)csc2c1,"inconclusive [inhibitor, partial curve]",
CN(C)c1ccc(/C=N/NC(=O)c2ccccc2Cl)cc1,"inconclusive [inhibitor, full curve]",
O=C(NC1CCCC1)C1C2C=CC(C2)C1C(=O)N1CCOCC1 (configuration not stated),"inconclusive [inhibitor, full curve, poor fit]",
Cc1cccc(NC(=O)NCCc2c[nH]c3ccccc23)c1,"inconclusive [inhibitor, single point]",
O=C(c1cccs1)N1N=C(c2ccccc2)CC1c1ccccc1 (configuration not stated),,inactive: 2.08%
COc1ccc(OC)c(N(CC(=O)NCCSc2ccccc2)S(C)(=O)=O)c1,"inconclusive [inhibitor, full curve, poor fit]",

SMILES,Potency,"activity change, negative = inhibition"
COc1ccc(-c2n[nH]c(=S)n2-c2ccc(Br)cc2)cc1OC,"inconclusive [inhibitor, partial curve]",
Cc1snc(SCC(=O)c2ccc(Cl)cc2)c1C#N,"inconclusive [inhibitor, partial curve, poor fit]",
CC1=CN2C(=NC(=O)CC2(C)C(=O)N(CC(=O)NC2CCCC2)Cc2ccccc2)C=C1 (configuration not stated),"inconclusive [inhibitor, full curve, poor fit]",
C#CCSc1nnc(-c2c[nH]c3ccccc23)n1C,"inconclusive [inhibitor, full curve, poor fit]",
CC(O)CC(C(=O)NNc1ccccc1)C(=O)NNc1ccccc1 (configuration not stated),"inconclusive [inhibitor, single point]",
COCC(=O)Nc1ccc(OC)c(Cl)c1,,inactive: -4.08%
O=C(c1ccc(F)cc1)N1CCCC(c2nc(-c3cccs3)no2)C1 (configuration not stated),"inconclusive [inhibitor, full curve, poor fit]",
O=C(COC(=O)C1CC(O)CN1S(=O)(=O)c1ccc(Cl)cc1)c1cccc(Cl)c1 (configuration not stated),"inconclusive [inhibitor, partial curve, poor fit]",
CCOC(=O)c1cc2ccc3ccccc3c2s1,"inconclusive [inhibitor, partial curve, poor fit]",
Cc1c(NC(=O)C(C)OC(=O)c2sc3ccccc3c2Cl)c(=O)n(-c2ccccc2)n1C (configuration not stated),"inconclusive [inhibitor, full curve, poor fit]",
c1csc(-c2cnc3n2CCCC3)c1,"inconclusive [inhibitor, full curve, poor fit]",
C=CCn1c(C)cc(C(=O)COC(=O)[C@@H](NC(=O)c2ccccc2Cl)C(C)C)c1C,"inconclusive [inhibitor, single point]",
CCOC(=O)C1C(C(=O)Nc2cccc(C(F)(F)F)c2)C1C(=O)NC(C)C (configuration not stated),"inconclusive [inhibitor, full curve, poor fit]",
CCc1nn(C(C)C(=O)NC2CCCCCC2)c(=O)c2cc3occc3n12 (configuration not stated),,inactive: -0.414%
Cc1nnc(SCC(=O)c2ccc(Br)cc2)s1,,inactive: 5.09%
COc1ccc(Cn2c(C)c(C)c(C#N)c2NC(=O)Nc2cccc(C)c2)cc1,"inconclusive [inhibitor, single point]",
COc1ccccc1C(=O)Nc1c(C(=O)N(C)c2ccccc2)sc2nc(C)cc(C)c12,,inactive: -0.228%
CC(C)CC(=O)Nc1ccc(C(=O)CN2CCC(C)CC2)cc1,,inactive: -1.24%
COc1ccc(CCC(=O)NC2=NCCS2)cc1OC,"inconclusive [inhibitor, partial curve, poor fit]",
Cc1cc(OC(=O)CCCNC(=O)OC(C)(C)C)c2c3c(c(=O)oc2c1)CCC3,"inconclusive [inhibitor, partial curve, poor fit]",
COc1ccc(/C=N/Nc2nc3ccccc3o2)cc1OC,"inconclusive [inhibitor, full curve, poor fit]",
